From ChEMBL document CHEMBL4888484, “Replenishing the malaria drug discovery pipeline: Screening and hit evaluation of the MMV Hit Generation Library 1 (HGL1) against asexual blood stage Plasmodium falciparum ,using a nano luciferase reporter read-out” (2022) come the findings set out here.

SMILES strings stand for the structures. Hit rate of the full screen: of about 150,000 compounds, about 540 (0.36%) showed an effect of 50% or more. This is one part of the list.

In the test the test system is Plasmodium falciparum. Nature of the test: Primary screen in NF54 nanoGlo assay, in single point, at 2uM, 72h; a lower Z score goes with more inhibition. It counts as functional, Erythrocyte. Conditions: timepoint 72 hour.
The % Inhibition is the drop in the measured response relative to a control, in per cent. `O=C(c1ccc(-c2cnc3nncn3c2)cc1)N1CCCCCC1`: the “% Inhibition” value is reported as -26% and the Z score is reported as 2.74.

For the compound `Cc1ccc(NC(=O)CS(=O)(=O)c2ccc3c(c2)S(=O)(=O)N=CN3)cc1`, the “% Inhibition” value is given as -7% and the Z score is listed as 1.

`COc1ccc(NC(=O)N(C)Cc2cc(C)on2)cn1`: the “% Inhibition” value came to 2% and the Z score is recorded as -0.31.

As for `Cc1cc2n(n1)CCCN2C(=O)CCC(=O)NCc1ccco1`, the “% Inhibition” value is -7% and the Z score amounted to 0.94.

As for `C[C@@]1(C(=O)O)CCCN1C(=O)c1cccc2c1CCC2`, the “% Inhibition” value is given as -10% and the Z score is given as 1.17.

As to `C[C@@H](c1ccccn1)N(C)Cc1ccc(OCC(=O)N2CCCC2)cc1`, the “% Inhibition” value is -10% and the Z score was found to be 1.66.

Take `O=C(O)C1CCN(C(=O)c2ccc(Oc3ccc(F)c(F)c3)cc2)CC1`: the “% Inhibition” value is listed as -5% and the Z score was found to be 0.76.

Turning to `COCCOc1ncccc1NC(=O)N1C2CCC1CC(=O)C2`, the “% Inhibition” value is on record as 34% and the Z score was -3.82.

Regarding `CC1CC(C(=O)N2CCCc3cc[nH]c(=O)c32)CC(C)(C)C1` (configuration not stated), the “% Inhibition” value was 2% and the Z score is -0.33.

`Cc1ccc(CNC(=O)CCCC(=O)NCc2ccccc2)o1`: the “% Inhibition” value worked out at 40% and the Z score was -5.22.

On to `CCOc1ccccc1N1CCN(c2nc(=O)c3cn[nH]c3[nH]2)CC1`, for which the “% Inhibition” value is -5% and the Z score is 0.85.

With `COCCN(CCOC)C(=O)Nc1cccnc1`, the “% Inhibition” value worked out at 9% and the Z score was -0.92.

For the compound `CCOC(=O)c1nsc(NC(C)=O)n1`, the “% Inhibition” value was -24% and the Z score stood at 2.84.

Take `O=C(Cc1cccs1)N1CCC(Cn2c(C(F)(F)F)nc3ccccc32)CC1`: the “% Inhibition” value is 6% and the Z score is on record as -0.73.

As for `COc1ccc(CC(=O)Nc2nc3c(s2)Cc2ccccc2-3)cc1C`, the “% Inhibition” value was 14% and the Z score is recorded as -1.89.

Consider `CCOC(=O)c1cnc(NC(C)C)nc1N`, for which the “% Inhibition” value is recorded as -12% and the Z score stood at 1.36.

`CCc1nc([C@@H]2CN(Cc3ccccc3)CCO2)sc1C(=O)OC`: the “% Inhibition” value is recorded as -7% and the Z score came to 0.63.

For the compound `CC1CCC(O)(CNC(=O)c2[nH]ccc2C2CC2)CC1` (configuration not stated), the “% Inhibition” value is recorded as -3% and the Z score was found to be 0.57.

Consider `Cc1ccc(CN2CCN(C(=O)c3cnc(C4CC4)nc3C)CC2=O)cc1C`, for which the “% Inhibition” value is on record as 5% and the Z score was -0.94.

Regarding `COc1cccc(-c2cc(C(=O)Nc3ccc(F)cc3)nc3cc(C(C)(C)C)nn23)c1`, the “% Inhibition” value was -5% and the Z score came out at 0.75.

For the compound `COc1ccc(CCN2C(=O)O[C@H]3CN(C(=O)c4cccnc4)C[C@H]32)cc1`, the “% Inhibition” value was -8% and the Z score worked out at 0.97.

Regarding `CC(C)CNc1ncc(S(=O)(=O)N(C)CC[C@H](C)O)cc1Cl`, the “% Inhibition” value was 2% and the Z score was -0.39.

`CCCCc1nc(CN2CCC[C@@]3(CNC(=O)O3)C2)c[nH]1`: the “% Inhibition” value worked out at 1% and the Z score is -0.11.

For the compound `COc1ccc(NC(=O)c2sc(-n3nc(C)c(Cl)c3C)nc2C)c(OC)c1`, the “% Inhibition” value was determined as 1% and the Z score is recorded as -0.22.

For `NC(=O)N1CCC[C@H]1C(=O)N1CCCCCCC1`, the “% Inhibition” value is -10% and the Z score is 1.97.

Consider `O=C(O)Cn1nc(C2CC2)c2c(C(F)(F)F)cc(-c3cccs3)nc21`, for which the “% Inhibition” value is reported as -48% and the Z score was determined as 5.64.

As for `CCN1CCN(C(=O)CCc2nnc(Cc3cc(OC)ccc3OC)o2)CC1`, the “% Inhibition” value was -2% and the Z score stood at 0.27.

In the case of `Cc1csc(C[C@H](C)n2cc(Cl)cn2)n1`, the “% Inhibition” value is recorded as -7% and the Z score turned out to be 1.03.

Regarding `COC[C@]1(CNC(=O)c2cnc(C)nc2N)OCCc2ccccc21`, the “% Inhibition” value came out at 1% and the Z score is recorded as -0.17.

Take `C#Cc1cccc(NC(=O)NCCCOC)c1`: the “% Inhibition” value is 0% and the Z score was found to be 0.01.

Take `CNC(=O)C[C@H]1CCN(C(=O)CCc2cnn(C)c2)C1`: the “% Inhibition” value is on record as -6% and the Z score worked out at 1.06.

For the compound `Cc1nnc(CCNC(=O)c2ccc(Cl)s2)s1`, the “% Inhibition” value is reported as -26% and the Z score came out at 2.43.

In the case of `O=C(Cc1ccc(F)cc1)NC1CCN(C(=O)c2cc(-c3ccccc3)n[nH]2)CC1`, the “% Inhibition” value was 8% and the Z score is given as -0.98.

`C#CCN1C(=O)[C@H](c2c(-c3ccc(Cl)cc3)[nH]c3c2c(=O)[nH]c(=O)n3C)c2ccccc21`: the “% Inhibition” value is -8% and the Z score was 1.28.

`N#CC1(NC(=O)CNc2ccccc2Oc2ccccc2)CCCC1`: the “% Inhibition” value was 2% and the Z score is recorded as -0.43.

Turning to `Cc1ccc(NC(=O)c2ncn(C[C@H](O)c3ccc(F)cc3)n2)cc1`, the “% Inhibition” value is -7% and the Z score is 0.83.

Consider `Cc1ccnc(-c2n[nH]c(C(C)NC(=O)C3CCC(F)(F)C3)n2)c1` (configuration not stated), for which the “% Inhibition” value is recorded as -6% and the Z score amounted to 1.1.

For the compound `CC(C)[C@H](C)NC(=O)CCn1cncn1`, the “% Inhibition” value came out at 4% and the Z score was -0.44.

Consider `Cc1nc(CCNS(=O)(=O)c2cc(Cl)cnc2N)cs1`, for which the “% Inhibition” value is 3% and the Z score was -0.4.

As to `CN1CCN(CC(=O)Nc2ccc(Cc3cccc(C(N)=O)c3)nc2)CC1`, the “% Inhibition” value is -3% and the Z score stood at 0.56.

Take `Cc1cnc(N2CCC3(CC2)[C@@H](C(=O)O)CC(=O)N3C)nc1N(C)C`: the “% Inhibition” value stood at 18% and the Z score is on record as -2.35.

Take `CC(C)(C)c1nnnn1CCO[C@@H]1CCCCO1`: the “% Inhibition” value is reported as -10% and the Z score stood at 1.87.

As to `Cc1ccc(-c2nc(CNC(=O)Cc3ccc(O)cc3)[nH]c2-c2ccccn2)cc1`, the “% Inhibition” value is reported as -16% and the Z score stood at 2.25.

In the case of `CN1CC(=O)N2CCN(Cc3ccc(Cl)o3)C[C@H]2C1=O`, the “% Inhibition” value is -4% and the Z score amounted to 0.86.

With `COc1ccc(-c2cc3n(n2)CCC(=O)N3CC(=O)NCc2ccc(C)cc2)cc1`, the “% Inhibition” value was -3% and the Z score stood at 0.32.

On to `O=C(Nc1cn[nH]c1)[C@@H]1COc2ccccc2O1`, for which the “% Inhibition” value came out at 3% and the Z score is given as -0.47.

As to `Cc1ccc(N(C)S(=O)(=O)CC[C@H]2CCCO2)c(C)c1`, the “% Inhibition” value came out at 4% and the Z score is -0.42.

As to `CCN1CC[C@H](NC(=O)N2CCC(O)(Cc3ccccc3F)CC2)C1=O`, the “% Inhibition” value is listed as -21% and the Z score came out at 2.16.

In the case of `COCCOCC(=O)NC[C@@]12CCCC=C1N(C)C(=O)CC2`, the “% Inhibition” value is given as -4% and the Z score was 0.6.

On to `Cc1nc(CNC(=O)COc2ccccc2Cl)cs1`, for which the “% Inhibition” value stood at 12% and the Z score is given as -1.35.

`Cn1nc2c(c1CNc1nnc(C(C)(C)C)s1)CCC2`: the “% Inhibition” value is given as -7% and the Z score came out at 1.22.

Consider `Cc1cc(C(=O)N2CCCCC2)c2c(-c3ccccc3F)noc2n1`, for which the “% Inhibition” value is listed as 29% and the Z score is given as -3.24.

Turning to `CC(C)(C)[C@H](COc1ccccc1F)NC1CCN(C(N)=O)CC1`, the “% Inhibition” value stood at 6% and the Z score is given as -0.68.

In the case of `O=C(C1CC2C=CC1C2)N1CCCc2ccccc21` (configuration not stated), the “% Inhibition” value is listed as -6% and the Z score was determined as 0.89.

As to `CC(C)(C)C(O)CC(CO)Nc1cnccn1` (configuration not stated), the “% Inhibition” value amounted to 14% and the Z score is on record as -1.77.

For `CCc1nc(C)c([C@H]2CN(C)C[C@@H]2C(=O)N(C)Cc2sccc2C)[nH]1`, the “% Inhibition” value is -13% and the Z score was found to be 1.22.
